Data as given in PubChem BioAssay AID686978 (National Center for Advancing Translational Sciences (NCATS), 2013).
Where “and” joins values, the source holds several entries; their conditions need not be identical. Equal values may be shown once. Out of some 420,000 compounds screened, about 64,000 (15%) were called active. The inconclusive results got no clear call from the source; some entries with a clear call stand among them for comparison. Calls follow the shape of the dose curve; as a rule, active = well fitted inhibition curve with a large enough effect; inconclusive = small, poorly fitted or top-dose-only effect; inactive = flat fitted curve, though single readings scatter. No potency is given beside an inconclusive call; the fits are too rough.

test: qHTS for Inhibitors of human tyrosyl-DNA phosphodiesterase 1 (TDP1): qHTS in cells in absence of CPT; conditions: DT40 Tdp1-/- hTDP1 cells, no CPT, ATP luminescence, 48 h; activity change, negative = growth inhibition: at 46.2 µM (top of the series) unless noted; also: nearly all actives have a fitted effect of over 55% in size
In short: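 A cellular qHTS used chicken DT40 cells lacking endogenous Tdp1 but carrying stably transfected human TDP1. Compounds were applied without camptothecin, and cell growth kinetics were judged by ATP-dependent luminescence after ≥48 hr.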
% is scaled to controls: 0 for no effect and ±100 for the full control effect; potency is read from the fitted curve at half-maximal effect; tags tell the direction and shape of the fitted curve.

Compound | Potency | activity change, negative = growth inhibition
COc1cccc(C(=O)Nc2ccc(NC(=O)c3ccco3)c(Cl)c2)c1 | inconclusive [inhibitor, single point] | –
COc1cc(CCC(=O)NNC(=O)c2ccc(Cl)cc2)cc(OC)c1OC | – | inactive: -0.154%
O=C(NNC(=O)c1ccc(S(=O)(=O)N2CCOCC2)cc1)c1ccccc1 | – | inactive: 4.08%
O=C(NNC(=O)c1cc(-c2ccco2)nc2ccccc12)c1ccccc1 | inconclusive [inhibitor, partial curve] | –
CN(CC(=O)Nc1cccc(F)c1)C(=O)c1cccc(S(=O)(=O)N2CC3(C)CC2CC(C)(C)C3)c1 (configuration not stated) | inconclusive [inhibitor, partial curve, poor fit] | –
C=CCNCCCOc1ccc(C)cc1Br | inconclusive [inhibitor, single point] | –
CN(CC(=O)Nc1ccc(OC(F)(F)F)cc1)S(=O)(=O)c1ccc2c(c1)CCC(=O)N2 | active: 11.6 µM | –
Cc1ccc2cc(C#N)c(SCc3nnc(-c4ccccc4[N+](=O)[O-])o3)nc2c1 | active: 20.6 µM | –
O=C(Nc1cc(Sc2ccccn2)cc([N+](=O)[O-])c1)c1cccc(F)c1 | inconclusive [inhibitor, single point] | –
COCC(C)n1c(C)cc(C(=O)COC(=O)c2nc3nc(C)cc(C)n3n2)c1C (configuration not stated) | inconclusive [inhibitor, single point] | –
COc1coc(C(O)CN)cc1=O (configuration not stated) | – | inactive: -4.5%
CS(=O)(=O)N(CC(=O)O)c1ccc(C23CC4CC(CC(C4)C2)C3)cc1 | – | inactive: 27.1%
CCc1cc(C(c2ccc(F)cc2)N2CCOCC2)c(NC(=O)c2ccccc2)s1 (configuration not stated) | inconclusive [inhibitor, single point] | –
Cc1ccc(CNC(=O)CCCN2C(=S)NC(C)(C)CC2C)cc1 (configuration not stated) | inconclusive [inhibitor, single point] | –
Cc1ccc(C)c(NC(=O)COC(=O)CCC(=O)c2cccs2)c1 | – | inactive: 4.67%
CCCCc1cc(=O)oc2c3c(cc(OCC(=O)NCCCO)c12)OC(C)(C)CC3 | – | inactive: -10.6%
O=C(Nc1ccc(N2CCCC2)cc1)C(c1ccccc1)c1ccccc1 | inconclusive [inhibitor, single point] | –
Cc1c(C(=O)N2CCCC2)oc2c1-c1nn(CC(=O)NCc3ccc(OC(C)C)cc3)cc1CC2 | active: 20.6 µM | –
CC(C)(C)NC(=O)c1cccc(NC(=O)c2ccco2)c1 | – | inactive: -22.4%
CCn1c(SCC(=O)Nc2nnc(C)s2)nc2c(c1=O)SC(C)C2 (configuration not stated) | inconclusive [inhibitor, partial curve] | –
COc1ccc(-c2nnc(SCc3ccccn3)n2C)cc1 | inconclusive [inhibitor, single point] | –
Cc1ccc(C)c(NC(=O)CSc2nc3nccnc3c(=O)n2CCc2c[nH]c3ccccc23)c1 | active: 11.6 µM | –
Cc1ccc(-n2c(=O)c3c(C)c(C(=O)N(C)C)sc3n(CC(=O)N(C)c3ccccc3)c2=O)cc1C | – | inactive: -26.2%
O=C(NCCC1CCCCN1S(=O)(=O)c1ccc(Cl)cc1)C(=O)NCc1cccnc1 (configuration not stated) | inconclusive [inhibitor, single point] | –

Compound | Potency | activity change, negative = growth inhibition
CCCCOCCCNC(=O)C[C@@H]1C[C@@]2(C(=O)OCC)CCC=C2N(Cc2ccc(Cl)cc2Cl)C1=O | active: 14.6 µM | –
CCC(Oc1ccccc1C)C(=O)N1CCCN(C)CC1 (configuration not stated) | – | inactive: -0.173%
COc1cc(-c2nnc(SCc3ccccc3Cl)o2)cc(OC)c1OC | inconclusive [inhibitor, single point] | –
Cc1ccc2occ(-c3cc(-c4ccccc4)nc4c3COc3ccccc3-4)c(=O)c2c1 | inconclusive [inhibitor, partial curve] | –
CCOC(=O)c1cc(-c2ccccc2)n(CCCC(=O)Nc2ccc(C)c(Cl)c2)c1C | active: 23.1 µM | –
COc1cccc2oc3cc(C#Cc4ccccn4)ccc3c(=O)c12 | inconclusive [inhibitor, single point] | –
O=C(COC(=O)c1ccc2ncsc2c1)Nc1ccccc1Cl | – | inactive: -2.81%
CCOc1ccc(NC(=O)CCCCn2c(=O)[nH]c3ccsc3c2=O)cc1 | – | inactive: -16.9%
COc1ccc(-c2nc(-n3c(C)c(C(C)=O)c(C(C)=O)c3C)sc2C)cc1OC | inconclusive [inhibitor, partial curve, poor fit] | –
O=C(Nc1ccc(-c2nc3cc(Cl)ccc3o2)cc1)c1cc(Br)ccc1Cl | inconclusive [inhibitor, partial curve, poor fit] | –
CC(NC(=O)CC1CCCCC1)c1ccccc1 (configuration not stated) | – | inactive: 0.992%
COc1cc2c(cc1NC(=O)C(C)OC(=O)/C=C/c1ccc(OC(F)F)cc1)oc1ccccc12 (configuration not stated) | inconclusive [inhibitor, single point] | –
O=C(NNC1=NCCC1)c1cccc(Br)c1 | – | inactive: -12%
CCc1ccc(NC(=O)Cn2c(=O)c3cccn3c3ccccc32)cc1 | active: 20.6 µM and active: 4.11 µM | –
[N-]=[N+]=CC(=O)C(c1ccccc1)(c1ccccc1)c1ccccc1 | – | inconclusive: -32% [inhibitor]
CC(C)(C)c1ccc(C(=O)N2CCC2(C)C(=O)NCCC#N)cc1 (configuration not stated) | inconclusive [inhibitor, partial curve] | –
CCc1cccc(C)c1NC(=O)CN1CCN(Cc2ccccc2Cl)S1(=O)=O | active: 25.9 µM | –
O=C(CCCc1ccccc1)NCCCc1ccccc1 | inconclusive [inhibitor, single point] | –
COCCn1c(=O)cnc2cnc(N(C)C)nc21 | – | inactive: -18%
CC(=O)Nc1ccc(C2=CC(=O)C[C@H](c3ccc4c(c3)OCO4)C2)cc1 | inconclusive [inhibitor, single point] | –
Cc1nnsc1C(=O)N1CCC(CO)(Cc2ccccc2Cl)CC1 | inconclusive [inhibitor, single point] | –
O=C(N1CCOCC1)C12CC3CC(C1)CC(n1cnc(Cl)n1)(C3)C2 | – | inactive: -11.4%
C[C@@H](CN1CCC[C@H]1CN1C(N)=NC[C@@H]1Cc1ccccc1)N1C[C@@H](Cc2ccccc2)N(CCc2ccc(Cl)c(Cl)c2)C1=N | inconclusive [inhibitor, single point] | –
